From US10441577B2, “Medicament for treatment of liver cancer” (HELMHOLTZ ZENTRUM FUER INFEKTIONSFORSCHUNG, priority 2011, dated 2019)

Key:
[1] = system: murine liver cancer cells (Nras arf-/-); experiment: viable cell count of cultivated murine liver cancer cells (FIG. 8, 12, 16); assay type: cell-based, mouse; details: two days of treatment; for viable cell count, efficacy of combination: inhibitor in combination with Sorafenib; for viable cell count: single agent, 10 μM Sorafenib, 2 μM or 12 μM BIRB
Description: In the assay, murine liver cancer cells (Nras arf−/−) were cultivated.
(§1) Similar to the assay for BIRB-796, SB 202190 was tested in an in vitro assay of the murine liver cancer cells (Nras Arf−/−) and the human liver cancer cell line (Hep3B).

[2] = system: human liver cancer cell line (Hep3B); experiment: viable cell count of cultivated human liver cancer cell line (FIG. 9, 13, 17); assay type: cell-based; details: for viable cancer cells compared to Sorafenib alone: 12 μM inhibitor with 2 μM Sorafenib, 7 days; for viable cell count, efficacy of combination: inhibitor in combination with Sorafenib; for viable cell count, efficacy of combination / viable cell count: 7 days of treatment; for viable cell count: single agent, 2 μM Sorafenib, 2 μM or 12 μM BIRB
Description: as §1

[3] = system: human liver cancer cells (Hep3B); experiment: dead cell count by trypane blue staining (FIG. 11, 15); details: inhibitor in combination with Sorafenib versus either alone and carrier
human liver cancer cells = details: 12 μM inhibitor + 2 μM Sorafenib; 7 days
Mapk14 = Mapk14 (Homo sapiens, UniProt Q16539); details: cited from earlier work
[4] = system: liver cancer induced by NrasG12V; experiment: survival of p19Arf-/- mice with NrasG12V-induced liver cancer expressing shRNA, with or without Sorafenib (FIG. 2); assay type: in vivo, mouse; details: Sorafenib with non-specific shRNA (shcontrol), versus shcontrol+carrier
Description: As a representative of a human patient having liver cancer, a genetically manipulated mouse model (p19^Arf−/−) was generated, in which liver cancers were induced by a constitutive expression of the oncogenic NrasG12V mutant.
The nucleic acid construct for generating liver carcinomas is schematically shown in FIG. 1, containing an expression cassette, wherein the coding sequence for NrasG12V is arranged between a 5′ promoter sequence and a 3′ polyadenylation site, which expression cassette is flanked by two inverted repeat elements (IR). For intrahepatic delivery of the expression cassette, this nucleic acid construct was administered in combination with a nucleic acid construct containing an expression cassette for the transposase sleeping beauty 13 (SB 13) under the control of the constitutive phosphoglycerate kinase promoter (PGK). The mouse model receiving both nucleic acid constructs shown in FIG. 1 was p19^Arf−/−, providing the genetic background sufficient for constitutive generation of murine liver cancer. Nucleic acid constructs were introduced into experimental mice using hydrodynamic tail vein injection.
Mice that were genetically conditioned to develop liver cancer were treated with a pharmaceutical composition containing Sorafenib in a carrier, and carrier alone as a control. […]

liver carcinomas = experiment: survival of mice with liver carcinomas carrying doxycycline-inducible shRNA, with or without Sorafenib (FIG. 7); details: Sorafenib without inactivation of Mapk14 (shMapk14.1095 -DOX or shcontrol +DOX)

UniProt Q16539, sequence (Q16539 whole entry): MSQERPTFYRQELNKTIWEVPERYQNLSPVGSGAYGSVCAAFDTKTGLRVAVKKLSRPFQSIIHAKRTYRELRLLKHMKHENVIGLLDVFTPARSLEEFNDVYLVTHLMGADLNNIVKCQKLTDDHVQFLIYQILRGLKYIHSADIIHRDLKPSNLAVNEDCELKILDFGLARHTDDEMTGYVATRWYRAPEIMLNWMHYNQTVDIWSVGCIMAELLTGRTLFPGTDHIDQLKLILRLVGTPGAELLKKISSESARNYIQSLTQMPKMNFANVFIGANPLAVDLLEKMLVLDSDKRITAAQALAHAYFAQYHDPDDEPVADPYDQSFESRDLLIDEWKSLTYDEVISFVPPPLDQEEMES

Compound | viable cell count, efficacy of combination [1] | viable cell count, efficacy of combination [2] | pIC50 (Mapk14) | other results
Cc1ccc(-n2nc(C(C)(C)C)cc2NC(=O)Nc2ccc(OCCN3CCOCC3)c3ccccc23)cc1 [BIRB 796, 1-[5-tert-butyl-2-(4-methylphenyl)pyrazol-3-yl]-3-[4-(2-morpholin-4-ylethoxy)naphthalen-1-yl]urea] | marked increase in the efficacy over Sorafenib alone | marked increase in the efficacy over Sorafenib alone |  | viable cell count [1]: no significant influence; viable cancer cells compared to Sorafenib alone [2]: significant decrease in viable cancer cells; viable cell count [2]: reduction of viable human cancer cells; dead cell count [3]: more prominent; cell density by crystal violet staining (human liver cancer cells): increases the efficacy of Sorafenib
COc1cc(SC)ccc1C(=O)N1CCC(Cc2ccccc2)CC1 [JX 401, 1-[2-methoxy-4-(methylthio)benzoyl]-4-(phenylmethyl)piperidine] |  |  | 7.49 | 
Fc1ccc(-c2[nH]cc(C3=CCN(CCc4ccccc4)CC3)c2-c2ccncc2)cc1 [R-130823, 2-(4-fluorophenyl)-4-(1-phenethyl-1,2,3,6-tetrahydropyridin-4-yl)-3-(pyridin-4-yl)-1H-pyrrole] |  |  | 7.66 | 
C[C@]1(C(=O)N2CCOCC2)CO[C@H](c2nc(-c3ccc(F)cc3)c(-c3ccnc(NC4CC4)n3)[nH]2)OC1 [RPR203494, trans-N-cyclopropyl-4-[4-(4-fluorophenyl)-2-[5-methyl-5-(4-morpholinylcarbonyl)-1,3-dioxan-2-yl]-1H-imidazol-5-yl]pyrimidin-2-amine] |  |  | 8.05 | 
Oc1ccc(-c2nc(-c3ccc(F)cc3)c(-c3ccncc3)[nH]2)cc1 [SB202190, 4-[4-(4-fluorophenyl)-5-(4-pyridinyl)-1H-imidazol-2-yl]phenol] | marked increase in the efficacy over Sorafenib alone | marked increase in the efficacy over Sorafenib alone |  | viable cancer cells compared to Sorafenib alone [2]: significant decrease in viable cancer cells; dead cell count [3]: significantly more effective than Sorafenib or SB202190 alone; cell density by crystal violet staining (human liver cancer cells): increases the efficacy of Sorafenib
Cc1nc(-c2ccccc2)c(-c2ccncc2)o1 [SC-68376, 2-methyl-4-phenyl-5-(4-pyridyl)oxazole] |  |  | 5.30 to 5.70 | 
NC(=O)c1ccc2[nH]ccc2c1 [SD 169, 1H-Indole-5-carboxamide] |  |  | 8.49 | 
CN(C)C(=O)C(=O)c1cn(C)c2cc(Cl)c(C(=O)N3CCC(Cc4ccc(F)cc4)CC3)cc12 [SX 011] | marked increase in the efficacy over Sorafenib alone | marked increase in the efficacy over Sorafenib alone | 8.05 | 
CNC(=O)c1cc(Oc2ccc(NC(=O)Nc3ccc(Cl)c(C(F)(F)F)c3)cc2)ccn1 [Sorafenib] |  |  |  | survival rate [4]: increased survival rate; viable cell count [1]: decrease of viable cancer cells; viable cell count [2]: decrease of viable cancer cells; survival rate (liver carcinomas): lower survival rate
indole-5-carboxamide [SD282] |  |  | 8.96 | 

pIC50: −log10 of the molar value.
